Measurements reported in the supplement of paper PMC11417369.
± gives the standard deviation of the averaged measurements. The list shows a part of the results.

tested on: PfAP2-I AP2 domain 3 (GST-tagged); assay: gcPBM binding intensity (ln(normalized median fluorescence intensity)); higher = stronger DNA binding
Summary of the method: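 The binding buffer was 1× PBS containing 1% milk, 0.2 mg/ml BSA, 0.5% salmon testes DNA and 0.03% Triton X-100. In it, GST-tagged P. falciparum DNA-binding domains expressed in E. coli were applied for 1 h to an Agilent 4 × 180k array of primer-extended double-stranded 36-bp intergenic genomic probes plus negative controls. Binding intensity, read with Alexa488 anti-GST antibody and a 488 nm scan, is the highest Masliner-normalised natural-log median intensity across replicate spots of either probe orientation.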

| Sequence | gcPBM binding intensity (ln) |
| --- | --- |
| AAAATTCAGCGAAAGGGTACATATGTGTAAGGGTAA [XGTACX_site8205] | 8.59 ± 0.77 |
| TATATTTATATACCAACACACATACATATTTATATA [CACACA_site6931] | 7.58 ± 0.42 |
| CTATTATATCAGTAGACACACATATAACATTTATAT [CACACA_site141] | 8.01 ± 0.3 |
| ATATAAAAAAAAAAAAAAAAATATATATATATATAT [GTGCAC_negctrl_site251] | 9.47 ± 0.29 |
| TTGGTTTGAAAGAAAGAAATTATTAAAAAGGAAATA [CACACA_negctrl_site26] | 7.67 ± 0.54 |
| GATATACTGTCAATTCTACACACCATAGGGGGAGCA [CACACA_site8562] | 9.2 ± 0.13 |
| TACTGATCCACATTTATACACACCTCGGTTTGTAGA [CACACA_site417] | 7.75 ± 0.49 |
| ATATATATATATACAACACACATGTAATATATAAAT [CACACA_site3294] | 9.34 ± 0.28 |
| TATAGATTCTTTTAATGTACATGTCTTTTCATTTCC [XGTACX_site8348] | 7.74 ± 0.69 |
| TTTTTAAATATATAATAGAATTGATTGTATTATATA [CACACA_negctrl_site196] | 7.3 ± 0.25 |
| GTATGAAAAAAAATATGTACACATATATATTTGGTA [XGTACX_site6309] | 7.75 ± 0.53 |
| TTGTGTTCTTATTTTTACACCGAAAAATATTAAAAG [CACACA_negctrl_site535] | 8.14 ± 0.35 |
| CCTTTATACATTTTCTGTACTGATATATATTAAAAA [XGTACX_site8467] | 8.1 ± 0.33 |
| TTGTTTTTTTCTTTTTGTACATATACAACATACATA [XGTACX_site8996] | 8.04 ± 0.6 |
| CATACACCCGGACACACACACACACCCATATATAAT [CACACA_site4494] | 8.21 ± 0.43 |
| GAAAATATATTATTTACACACATGTTCAAATTAAAA [CACACA_site3761] | 7.73 ± 0.59 |
| AAACAATTTATGTGTAGTACATGTTGGAGATAATTT [XGTACX_site6000] | 8.02 ± 0.51 |
| TATTAAATATAAGTCACACATAATTTTTCGTCCTTT [CACACA_site5065] | 7.57 ± 0.64 |
| GTTATACGCATATATACACACATATGTAAATATATA [CACACA_site3280] | 8 ± 0.33 |
| CTTTTTATTAAATATGCATGTGTATCAACAGTGAAT [TGCATGCA_site447] | 8.06 ± 0.88 |
| TAAAAAAAATAGCATACACACATATATACCTATATA [CACACA_site4535] | 7.33 ± 0.4 |
| ATCATAACACCTCCACACAAATAAATATAACATATA [XGTACX_negctrl_site269] | 8.09 ± 0.45 |

| Sequence | gcPBM binding intensity (ln) |
| --- | --- |
| ATGAGTGCACAAATATATATATATATATATATATAT [CACACA_negctrl_site404] | 11 ± 0.56 |
| TTCTATGAATTCATAGTGCAAATGAGTTATTTTTTC [GTGCAC_site9709] | 9.9 ± 0.33 |
| TTATTATTGTTATGTTGTACTTTTACAAACTTTTTG [XGTACX_site8797] | 7.87 ± 0.51 |
| AAGAAAATAGGGTTCATAGGATTATACTTTTGGAAT [TGCATGCA_negctrl_site80] | 7.59 ± 0.57 |
| AACGAGCAAGACGGGGTGCACACAAACTAATATGCC [GTGCAC_site9436] | 10.8 ± 0.37 |
| TAATAAAAGATATATACACACAAATAAATAAATAAA [CACACA_site7818] | 7.79 ± 0.95 |
| AAATATAAAAAAAATATATAATTTTTACATCGAATT [CACACA_negctrl_site544] | 7.27 ± 0.65 |
| ATAATATAAACATATTGTACACATATATTGCTATTT [XGTACX_site2799] | 7.83 ± 0.52 |
| AAAAAAAAATATATATATATATATATAAATAAATTT [CACACA_negctrl_site519] | 7.8 ± 0.57 |
| ATTTATTTATATAGAAGTACATATTTATTTATATAT [XGTACX_site6283] | 7.74 ± 0.26 |
| TAGAAATATAATTAATGTACATATGATATTATATAT [XGTACX_site923] | 7.67 ± 0.47 |
| ACATCAAGCAGACACACACACACACCCACCCACCGA [CACACA_site371] | 8.19 ± 0.74 |
| CTTTTTTAAATTATTGCACACAAAAATGAAAGGAAA [CACACA_site8412] | 10.2 ± 0.45 |
| ATATATTTATTAAGGTGTACAAAAATTATGTTGCAT [XGTACX_site7546] | 8.26 ± 0.35 |
| TATTTTATCTAAGGATGTACATTATTAAGAAAATGT [XGTACX_site6123] | 7.7 ± 0.45 |
| TTCATATAAATACATGCACACAAAAATATCAATACA [CACACA_site8753] | 8.69 ± 0.16 |
| ATATATTTTATTACCAGTACATATATTAAAATAATA [XGTACX_site8440] | 7.91 ± 0.4 |
| ATATAATGTGTAGGCCGTATTTACGTTTGGCAATCA [CACACA_negctrl_site1130] | 7.83 ± 0.53 |
| TATACAATATAAAATACACACGCACCCAAAAAAAAA [CACACA_site9174] | 8.73 ± 0.54 |
| ATTTTTTTATTTGATTGTACAATTTTCTTTCAAAAT [XGTACX_site2902] | 8.18 ± 0.54 |
| TATAATATAATATATATATATATATATATATAAGAA [CACACA_negctrl_site78] | 8.18 ± 0.39 |
| AGGGTTACAAGAGGAACACACAAAAAAATAAATAAA [CACACA_site1436] | 7.66 ± 0.78 |

| Sequence | gcPBM binding intensity (ln) |
| --- | --- |
| AAAAAAAATAGACACACACACATACACATAAATATA [CACACA_site7742] | 7.79 ± 0.43 |
| TTTATATTACAATAATATATTAAAAAATAAAATATA [TGCATGCA_negctrl_site18] | 7.39 ± 0.25 |
| ATTAAATCTATATATACACACATGTTTGGTATATTC [CACACA_site2657] | 7.73 ± 0.52 |
| TTTGTAATAAACTACTTTTTTTTTTTTTTTTTTTTT [CACACA_negctrl_site571] | 9.46 ± 0.26 |
| ATCTATTTCTATTGTTGTACTTATTTTTCATTGTTT [XGTACX_site6942] | 8.23 ± 0.47 |
| CGATTACTAATTTTTAGTACATATAATCAATATGTA [XGTACX_site7857] | 7.58 ± 0.32 |
| ATGTAGCCTTACGCTTGTACGAATATCTTAATTTTT [XGTACX_site4331] | 7.67 ± 0.67 |
| TAAGAAATAAATAGTACACACATAGACACCCACCCA [CACACA_site8429] | 8.65 ± 0.54 |
| AAACAAAATGGTAACACACACATATATAAATATGTA [CACACA_site6994] | 7.67 ± 0.43 |
| TATTATAAAGAAATTACACACATGCAATGAAAAAAA [CACACA_site1697] | 8.12 ± 1 |
| TCGTTTCCTTAAAATTGTACTTTTTTTTTTTTTTTT [XGTACX_site64] | 8.68 ± 0.31 |
| TAATGATAAATACATACACACAAAAAATAATATATA [CACACA_site2576] | 7.6 ± 0.49 |
| TGTTATTATTTGTACACACACATATAGATCCTTGTT [CACACA_site7667] | 8.21 ± 0.46 |
| AGAGTATATATATATGCATGCATATCTCATATTTAT [TGCATGCA_site509] | 7.77 ± 0.64 |
| CCTAAATATTTTTTATGTACATATTTATCTAAATTT [XGTACX_site6835] | 8.04 ± 0.31 |
| TGAGGAAACATGAGATGTACATATAAATTTTTTTTT [XGTACX_site2595] | 7.54 ± 0.43 |
| ATAGAAATTATAAATAGTACATAATAAAAATGAGCA [XGTACX_site822] | 7.89 ± 0.45 |
| ATTAAAGAGATATATACACACATTATGGGGGAATAA [CACACA_site6226] | 8.63 ± 0.28 |
| TAATAATAAACAACCACACACAAAAAAACAAAAAAA [CACACA_site3269] | 7.8 ± 0.51 |
| ATTTAATTATGTAAGTGTACTTTGGAATATAATATT [XGTACX_site3186] | 7.83 ± 0.45 |
| GTAGCACATATATATTGTACATAATATATACATTAT [XGTACX_site6354] | 7.83 ± 0.44 |
| GTGTGGTGCTCGAGGAGTACAAACAATATGTAATTT [XGTACX_site4160] | 8.3 ± 0.35 |

| Sequence | gcPBM binding intensity (ln) |
| --- | --- |
| TAAACAGACATATAAACACACATATAAACAGACATA [CACACA_site7214] | 7.71 ± 0.69 |
| TTTATTTTATAATTCACACATATATACCTATTTTAT [CACACA_site5709] | 7.8 ± 0.42 |
| TTTTCTTCCTATTATTGTACATATAGTATTCTTTCA [XGTACX_site4428] | 8.24 ± 0.81 |
| AATATAAGTAATTATACACACTTAATATTTATATAC [CACACA_site7334] | 7.7 ± 0.45 |
| TTATTTGATTACTTGCGTACTTATTTCATATTTTTT [XGTACX_site6648] | 8.04 ± 0.69 |
| GGGATATTTTAAAGGGTGCATATTATTAAAATAATG | 10.7 ± 0.51 |
| ATGAGAAAACATAAAAGTACAAAAAGAAAAAAAAAA [XGTACX_site6020] | 7.98 ± 0.67 |
| TTGGGTCAAACATAAACACACACAAAAAGAAAAAAT [CACACA_site8328] | 7.79 ± 0.53 |
| TATTATATTAATGATGGTACAGTGTATATATATAAT [XGTACX_site1286] | 8.13 ± 0.59 |
| TCATAGTATGGACACACACACACACCCATATATATA [CACACA_site5033] | 8.35 ± 0.72 |
| TTTCCATATTTTTAAAGTACATATTTCCGTTTCCAC [XGTACX_site7832] | 7.83 ± 0.78 |
| ACATATAATATAAAGTGTACAAGAAAATAAAAATAA [XGTACX_site1273] | 8.05 ± 0.59 |
| ACATATTAAAATATATGTACATAAAATATGAAAAAA [XGTACX_site5869] | 8.14 ± 0.4 |
| ATATTTATTCCTTTTGGTACACAAAAAAAAAAAAAA [XGTACX_site8126] | 8.09 ± 0.32 |
| AATTATTTCTTTTACACATGCAATATTTAATTAAAA [TGCATGCA_site598] | 8.43 ± 0.42 |
| TTTAAATGCTTTTTGTGGTGACTTATCCTTTCATAA [XGTACX_negctrl_site109] | 7.73 ± 0.48 |
| AATTTAAGCAGAACATATATATATATATATATAAAG [CACACA_negctrl_site769] | 8.09 ± 0.62 |
| TATATGCTATAATATACACACATACCTATATTTATA [CACACA_site6383] | 7.84 ± 0.49 |
| GTTAGGATAGATTAGACATGCACATAAATGCACTTC [TGCATGCA_site561] | 11.1 ± 0.34 |
| TTTTTATAGAATTTAACACACATTTCATATAAAAAA [CACACA_site7453] | 7.86 ± 0.47 |
| TTAAAATTCAAAAAAAAAAATCAGAATATCAGAAAA [CACACA_negctrl_site1361] | 7.22 ± 0.74 |
| TATATAACATAATATACACACATTATATGCGTAATT [CACACA_site6098] | 7.75 ± 0.36 |
